Data from publication PMC9574860, “Chemical Toolkit for PARK7: Potent, Selective, and High-Throughput” (Journal of Medicinal Chemistry, 2022).
Screen size: about 7,900 compounds; about 400 (5.1%) showed an effect of 50% or more. Some of the results follow.

Molecular target: Parkinson's disease protein 7 (PARK7/DJ1) (human, UniProt Q99497)
Experiment: primary screen, percent inhibition; read as competition with a fluorescent probe by fluorescence polarization; higher = more effect of the substance
Details: 100 µM
Outline: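 Fluorescence-polarization probe displacement (JYQ-107, 20 nM final, 2 h) after 2 h preincubation of PARK7 (0.2 μM final) with each fragment at 100 μM final. Read-out ex/em 480/520 nm; remaining activity derived from FP signal loss relative to reference controls.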

Parkinson's disease protein 7 (PARK7/DJ1), sequence (Q99497 whole entry, looked up): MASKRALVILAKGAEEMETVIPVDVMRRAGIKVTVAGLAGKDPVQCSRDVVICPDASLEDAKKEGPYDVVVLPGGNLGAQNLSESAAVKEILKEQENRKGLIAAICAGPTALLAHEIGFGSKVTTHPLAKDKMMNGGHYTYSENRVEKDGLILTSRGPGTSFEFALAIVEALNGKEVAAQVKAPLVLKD

| SMILES | Inhibition % [%] |
| --- | --- |
| Cl.O=S(=O)(F)C1CCCNC1 (stereo not drawn) | 8.33 |
| Cl.O=C(O)C1CCN(C(=O)C=Cc2ccccc2F)C1 (stereo not drawn) | 3.63 |
| Cc1noc2ncc(S(=O)(=O)OCC(F)(F)F)cc12 | 18.2 |
| O=C1OCCC1N1CCOC(c2nccs2)C1 (stereo not drawn) | 13.9 |
| CC1CCN(C(=O)CCl)C2CCCCC12 (stereo not drawn) | 18.1 |
| C=CC(=O)NC(=O)NC12CC3CC(CC(C3)C1)C2 | 3.27 |
| O=C(CCl)N(Cc1ccccc1)c1ccccc1 | 10.7 |
| CCc1cc(S(=O)(=O)n2ccnc2)ccc1OC | 7.72 |
| CS(=O)(=O)n1c(=O)oc2ccccc21 | 44.3 |
| CN(Cc1ccncc1)S(=O)(=O)C=Cc1ccccc1 | 11.5 |
| N#Cc1nccnc1N1CCC(c2ccsc2)CC1 | 7.7 |
| N#Cc1nc(N2CC[C@H](O)C2)ccc1Cl | 9.73 |
| N#Cc1ccc(NCCc2cccc(F)c2)cn1 | 1.64 |
| CCN(Cc1ccc2c(c1)OCCO2)C(=O)CCl | 17.9 |
| C=CC(=O)NCC1CCCCC(F)(F)C1 (stereo not drawn) | 6.18 |
| CC(C)NC(=O)C(C#N)=Cc1cccc(Cl)c1 | 7.34 |
| Cn1c(S)nc2sccc2c1=O | 5.34 |
| N#CC(=Cc1ccc(N2CCOCC2)cc1)C(N)=O | 12.7 |
| CC(C)NC(=O)C(C#N)=Cc1cc(F)ccc1F | 1.67 |
| N#Cc1ccc(C(F)(F)F)nc1S | 14.7 |
| N#CC1(CCCl)CCCCC1 | 3.15 |

| SMILES | Inhibition % [%] |
| --- | --- |
| C=CC(=O)NC(Cn1cncn1)c1ccccc1 (stereo not drawn) | 8.82 |
| N#Cc1nc2cc(Cl)ccc2o1 | 5.08 |
| CCc1nc(CNc2ccc(C#N)nc2)cs1 | 4.33 |
| C=CC(=O)NC1CC2(CCCC2)Oc2ccccc21 (stereo not drawn) | 1.13 |
| COCc1cccc(SC(=O)N(C)C)c1 | 29.5 |
| N#Cc1cccc(C(=O)O)n1 | 5.26 |
| O=c1[nH]c(-c2ccncc2)no1 | 11.2 |
| CC(NS(=O)(=O)C=Cc1ccccc1)C(=O)O (stereo not drawn) | 8 |
| CC1(C)OB(c2cc(Cl)ccc2N)OC1(C)C | 13.4 |
| O=C(CCl)Nc1ccc(Br)cc1F | 71.1 |
| C=CC(=O)N1CCNC(=O)C1 | 11.3 |
| N#Cc1ccc(S(=O)(=O)N2CCC[C@H]3CCCC[C@H]32)cn1 | 7.31 |
| CCC1SC(=C(C#N)C(N)=O)N(c2ccc(F)cc2)C1=O (stereo not drawn) | 5.28 |
| CC(CNc1nccnc1C#N)Cc1cccs1 (stereo not drawn) | 2.1 |
| CS(=O)(=O)C(C#N)=Cc1cccc(C(F)(F)F)c1 | 9.43 |
| C=CC(=O)Nc1cnc2[nH]ccc2c1 | 14.2 |
| C=CC(=O)NCC1C(C)(C)C1(F)F (stereo not drawn) | 1.36 |
| C=CCN(C(=O)Cn1cnc(C#N)n1)c1ccccc1 | 7.87 |
| O=C(CCCl)Nc1ccc(F)cc1 | 5.87 |
| N#Cc1ccc(CN2CCCCC2C2OCCO2)cc1 (stereo not drawn) | 10.8 |
| C=CC(=O)NC1CCN(C(C)C)C1=O (stereo not drawn) | 5.41 |

| SMILES | Inhibition % [%] |
| --- | --- |
| C=CC(=O)N1CCN(Cc2cncs2)CC1 | 8.7 |
| N#Cc1c(N)nc2n1CCOC2 | 8.61 |
| CCSc1cc(CNc2ccc(C#N)nc2)ccn1 | 6.38 |
| O=C1NC(c2ccccc2)C12CC=CC2 (stereo not drawn) | 6.25 |
| Cc1noc(C)c1CC(C)Nc1ccc(S(=O)(=O)F)cn1 (stereo not drawn) | 6.46 |
| C=CC(=O)NC(c1ccco1)c1ccccc1OC (stereo not drawn) | 3.02 |
| C=CC(=O)NCC1CCC(c2ccccc2)O1 (stereo not drawn) | 10.6 |
| C=CC(=O)N1CCN(C(C)C)c2ccccc2C1 | 5.69 |
| C=CC(=O)N1CCc2c(Cl)cccc21 | 13.7 |
| CC1(C)OB(c2ccc(N)c(F)c2)OC1(C)C | 1.59 |
| Cc1sc(NC(=O)CCl)c(C)c1C | 56.3 |
| C=CC(=O)N1C[C@@H](O)C[C@H]1C(=O)OC(C)(C)C | 10.9 |
| CSc1cc(C)c(B2OC(C)(C)C(C)(C)O2)cn1 | 5.78 |
| COc1ncc(S(=O)(=O)F)cn1 | 31.2 |
| Cc1cccc(N2C(=O)CN=C2S)c1 | 2.51 |
| COc1c(Br)ccc(F)c1B1OC(C)(C)C(C)(C)O1 | 9.18 |
| Cc1ncsc1C=C(C#N)C(=O)NCCc1ccccc1 | 6.72 |
| CSc1ccc(C=C(C#N)C(=O)NC(C)C)cc1 | 7.3 |
| O=C(CCl)Nc1ccc2c(c1)OCO2 | 46.5 |
| C=CC(=O)N1CCN(c2cc(OC)ccn2)CC1 | 9.1 |
| CCOc1cccc(CN2C(=O)CCC2=O)n1 | 2.95 |
